The supplement of paper PMC10670038
Structures can show the parent of a compound that is named as a salt. ± gives the standard deviation of the averaged measurements. Over roughly 2,000 compounds, “relative cell viability vs DMSO, compound + 0.2 uM CuET” has its median near 1; the lowest 2% begin near 0.25. Some of the results follow.

The compounds below were run on TE10 (assay: relative cell viability vs DMSO, compound + 0.2 uM CuET (fraction); TE10 is an esophageal squamous carcinoma line; higher = less cytotoxic). Settings: 2 µM; co-treatment: CuET (bis(diethyldithiocarbamate)copper) 0.2 uM; 48 h.
Description: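 TE10 ESCC cells (1,000/well, 384-well plates) were treated with Selleck bioactive library compounds at 2 uM combined with 0.2 uM CuET (copper diethyldithiocarbamate) for 48 h. Viability was read by CellTiter-Glo and expressed relative to DMSO wells. Two technical replicates (A, B).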
Work on `Cc1c(Nc2ncccc2C(=O)O)cccc1C(F)(F)F` [Flunixin Meglumin] yielded a relative cell viability of 0.952 ± 0.076. `CC(C)=CCCC(C)(OC1OC(COC2OCC(O)C(O)C2O)C(O)C(O)C1O)C1CCC2(C)C1C(O)CC1C3(C)CCC(OC4OC(CO)C(O)C(O)C4O)C(C)(C)C3CCC12C` (stereo not drawn) [Gynostemma Extract] showed a relative cell viability of 1.04 ± 0.076. With `NCCc1ccc(O)c(O)c1` [Dopamine HCl] the relative cell viability was 0.939 ± 0.22. Compound `C[C@H](CS)C(=O)N1CCC[C@H]1C(=O)O` [Captopril] has a relative cell viability of 1.16 ± 0.1. `CN(Cc1cc(Br)cc(Br)c1N)C1CCCCC1` [Bromhexine HCl] was tested, and the relative cell viability was 1.042 ± 0.0029. Compound `Nc1nc(N)c2nc(-c3cccc(O)c3)c(-c3cccc(O)c3)nc2n1` has a relative cell viability of 0.952 ± 0.014. `Cn1cnc2c(F)c(Nc3ccc(Br)cc3Cl)c(C(=O)NOCCO)cc21` [Selumetinib (AZD6244)] showed a relative cell viability of 0.555 ± 0.21. In the case of `FC(F)(F)Oc1ccc2nc(-c3ccc(OCCOCCOc4ccc(-c5nc6ccc(OC(F)(F)F)cc6[nH]5)nc4)cn3)[nH]c2c1`, the relative cell viability is reported as 0.604 ± 0.076. `C[C@@H]1C/C=C/C=C/C=C/C=C/[C@H](O[C@@H]2O[C@H](C)[C@@H](O)[C@H](N)[C@@H]2O)C[C@@H]2O[C@](O)(C[C@@H](O)C[C@H]3O[C@@H]3/C=C/C(=O)O1)C[C@H](O)[C@H]2C(=O)O` [Natamycin] was tested, and the relative cell viability was 1.16 ± 0.1. `CC(C(O)c1ccc(O)cc1)N1CCC(Cc2ccccc2)CC1` (stereo not drawn) [Ifenprodil Tartrate] gave a relative cell viability of 0.91 ± 0.069. `CCn1c(=O)c2c(nc(/C=C/c3ccc(OC)c(OC)c3)n2C)n(CC)c1=O` [Istradefylline] gave a relative cell viability of 0.9155 ± 0.0057. `CC(C)(Oc1ccc(Cl)cc1)C(=O)OCCOC(=O)c1cccnc1` [Etofibrate] gave a relative cell viability of 1.15 ± 0.087. Compound `Cc1cc(C)nc(NS(=O)(=O)c2ccc(N)cc2)n1` [Sulfamethazine] has a relative cell viability of 1.09 ± 0.047. In the case of `CC1(C)O[C@@H]2C[C@H]3[C@@H]4C[C@H](F)C5=CC(=O)C=C[C@]5(C)[C@@]4(F)[C@@H](O)C[C@]3(C)[C@]2(C(=O)CO)O1` [Fluocinolone Acetonide], the relative cell viability is reported as 1.1 ± 0.032. `CC(C)[C@H](N)C(=O)OCCOCn1cnc2c(=O)nc(N)[nH]c21` [Valaciclovir HCl] showed a relative cell viability of 0.958 ± 0.033. In the case of `CN1CCN2c3ncccc3Cc3ccccc3C2C1` (stereo not drawn) [Mirtazapine], the relative cell viability is reported as 0.799 ± 0.028. In the case of `CC(C)N(CC[C@H](c1ccccc1)c1cc(CO)ccc1O)C(C)C`, the relative cell viability is reported as 1.03 ± 0.15. Compound `CC[C@H](NC(=O)[C@H](C)NC)C(=O)N1C[C@@H](O)C[C@H]1Cc1c(-c2[nH]c3cc(F)ccc3c2C[C@@H]2C[C@H](O)CN2C(=O)[C@H](CC)NC(=O)[C@H](C)NC)[nH]c2cc(F)ccc12` [Birinapant] has a relative cell viability of 0.473 ± 0.052. For `CCCCCCNC(=O)n1cc(F)c(=O)[nH]c1=O` [Carmofur], the relative cell viability was 1.31 ± 0.1. In the case of `CCOC(=O)C1=C(N)Oc2ccc(Cl)cc2C1C(C#N)C(=O)OCC` (stereo not drawn), the relative cell viability is reported as 0.663 ± 0.023. Compound `Cc1nc(C(=O)NCC(=O)O)c(O)c2ccc(Oc3ccccc3)cc12` has a relative cell viability of 0.566 ± 0.39. With `COC(=O)C1=CO[C@@H](O)[C@@H]2C(CO)=CC[C@H]12` [Genipin] the relative cell viability was 1.06 ± 0.033. Work on `COc1cccc2c1C(=O)c1c(O)c3c(c(O)c1C2=O)C[C@@](O)(C(=O)CO)C[C@@H]3O[C@H]1C[C@H](N)[C@H](O[C@@H]2CCCCO2)[C@H](C)O1` [Pirarubicin] yielded a relative cell viability of 0.87688 ± 0.00065. For `CC#C[C@]1(O)CC[C@H]2[C@@H]3CCC4=CC(=O)CCC4=C3[C@@H](c3ccc(N(C)C)cc3)C[C@@]21C` [Mifepristone], the relative cell viability was 0.939 ± 0.054. Work on `CC[C@@H]1C(=O)N(C)c2cnc(Nc3ccc(C(=O)N[C@H]4CC[C@H](N5CCN(CC6CC6)CC5)CC4)cc3OC)nc2N1C(C)C` [Volasertib (BI 6727)] yielded a relative cell viability of 0.655 ± 0.056. In the case of `CCc1cccc(CC)c1NC(=O)N1Cc2[nH]nc(NC(=O)c3ccc(N4CCN(C)CC4)cc3)c2C1`, the relative cell viability is reported as 0.985 ± 0.23. Compound `Nc1nc(=O)n([C@@H]2CS[C@H](CO)O2)cc1F` [Emtricitabine] has a relative cell viability of 1.07 ± 0.073. With `COc1ccc(Cl)cc1C(=O)NCCc1ccc(S(=O)(=O)NC(=O)NC2CCCCC2)cc1` [Glyburide] the relative cell viability was 1.04 ± 0.053. Compound `CC#CCn1c(N2CCC[C@@H](N)C2)nc2c1c(=O)n(Cc1nc(C)c3ccccc3n1)c(=O)n2C` [Linagliptin] has a relative cell viability of 1.33 ± 0.14. `CCN(CC)CCOCCOC(=O)C1(c2ccccc2)CCCC1` [Pentoxyverine Citrate] was tested, and the relative cell viability was 1.25 ± 0.042. `COc1cc(NC(=O)c2ccccn2)ccc1Cl` showed a relative cell viability of 1.16 ± 0.24. `Cc1cc(C(C)(C)C)cc(C)c1CC1=NCCN1` [Xylometazoline HCl] gave a relative cell viability of 1.16 ± 0.14. Work on `CCN(CC)C(=O)C1(c2ccccc2)CC1CN` (stereo not drawn) [Milnacipran HCl] yielded a relative cell viability of 1.06 ± 0.062. With `N#C/C(=C(/N)Sc1ccc(N)cc1)c1ccccc1C(F)(F)F` the relative cell viability was 1.14 ± 0.089. `COc1cc2nc(N3CCN(C(=O)C4COc5ccccc5O4)CC3)nc(N)c2cc1OC` (stereo not drawn) [Doxazosin Mesylate] gave a relative cell viability of 1.1 ± 0.022. `O=c1c(O)c(-c2ccc(O)cc2)oc2cc(O)cc(O)c12` [Kaempferol] showed a relative cell viability of 1.12 ± 0.089. Work on `NC[C@@](O)(c1ccc(Cl)cc1)c1ccc(-c2cn[nH]c2)cc1` yielded a relative cell viability of 1.04 ± 0.051. `CNC(=O)c1ccc(N2C(=S)N(c3ccc(C#N)c(C(F)(F)F)c3)C(=O)C2(C)C)cc1F` [Enzalutamide (MDV3100)] showed a relative cell viability of 0.774 ± 0.15. With `COc1cc(OC)c(NC(=O)Nc2cc(C)on2)cc1Cl` the relative cell viability was 1.1 ± 0.05. Work on `CCCc1ccc(OCC(=O)N(Cc2nc(-c3cccnc3)no2)C(C)C)cc1` yielded a relative cell viability of 1.18 ± 0.13. For `CC(C)(C)c1cc(NC(=O)Nc2ccc(-c3cn4c(n3)sc3cc(OCCN5CCOCC5)ccc34)cc2)no1` [Quizartinib (AC220)], the relative cell viability was 0.362 ± 0.054. `CC1(C)Cc2c(-c3ccccc3)c(-c3ccc(Cl)cc3)c(CC(=O)O)n2C1` [Licofelone] showed a relative cell viability of 1.17 ± 0.023. `CNC(=O)c1c(F)cccc1Nc1nc(Nc2cc3c(cc2OC)CCN3C(=O)CN(C)C)nc2[nH]ccc12` gave a relative cell viability of 1.06 ± 0.1. Compound `O=C(/C=C/c1cccc(S(=O)(=O)Nc2ccccc2)c1)NO` [Belinostat (PXD101)] has a relative cell viability of 0.195 ± 0.017. `CN[C@H]1CC[C@@H](c2ccc(Cl)c(Cl)c2)c2ccccc21` [Sertraline HCl] was tested, and the relative cell viability was 0.95055 ± 0.00074. Compound `CC[C@H]1OC(=O)[C@H](C)[C@@H](O[C@H]2C[C@@](C)(OC)[C@@H](O)[C@H](C)O2)[C@H](C)[C@@H](O[C@@H]2O[C@H](C)C[C@H](N(C)C)[C@H]2O)[C@](C)(O)C[C@@H](C)CN(C)[C@H](C)[C@@H](O)[C@]1(C)O` [Azithromycin Dihydrate] has a relative cell viability of 1.12 ± 0.015. `CC[C@H]1OC(=O)[C@H](C)[C@@H](O[C@H]2C[C@@](C)(OC)[C@@H](O)[C@H](C)O2)[C@H](C)[C@@H](O[C@@H]2O[C@H](C)C[C@H](N(C)C)[C@H]2O)[C@](C)(O)C[C@@H](C)CN(C)[C@H](C)[C@@H](O)[C@]1(C)O` [Azithromycin] showed a relative cell viability of 0.675 ± 0.035. In the case of `CCn1c(N)c(C(=O)NC)c(=O)c2ccc(C#CC(C)(O)COC)nc21` (stereo not drawn), the relative cell viability is reported as 1.35 ± 0.3. `OCCn1cc(-c2ccc3c(c2)CC/C3=N\O)c(-c2ccncc2)n1` showed a relative cell viability of 1.19 ± 0.045. Work on `CN1CCc2nc(C(=O)N[C@@H]3C[C@@H](C(=O)N(C)C)CC[C@@H]3NC(=O)C(=O)Nc3ccc(Cl)cn3)sc2C1` [Edoxaban] yielded a relative cell viability of 1.22 ± 0.08. With `O=C1C(Cl)=C(N2CCOCC2)C(=O)N1c1ccc(Cl)c(Cl)c1` the relative cell viability was 1.17 ± 0.026. For `CC(C)[N+]1(C)[C@@H]2CC[C@H]1C[C@@H](OC(=O)C(CO)c1ccccc1)C2` (stereo partly drawn) [Ipratropium Bromide], the relative cell viability was 1.01 ± 0.077. `Cc1ccc(-c2cc(C(F)(F)F)nn2-c2ccc(S(N)(=O)=O)cc2)cc1` [Celecoxib] was tested, and the relative cell viability was 1.19 ± 0.065. In the case of `Nc1ccc(S(=O)(=O)Nc2nccs2)cc1` [Sulfathiazole], the relative cell viability is reported as 1.1 ± 0.12. `O=C(O)c1cccc(-c2noc(-c3ccccc3F)n2)c1` [Ataluren (PTC124)] showed a relative cell viability of 0.711 ± 0.053. Work on `CCc1cc2c(cc1CC)CC(NC[C@H](O)c1ccc(O)c3[nH]c(=O)ccc13)C2` [Indacaterol Maleate] yielded a relative cell viability of 1.19 ± 0.18. In the case of `C=C[C@]1(C)C[C@@H](OC(=O)CSC(C)(C)CNC(=O)[C@H](N)C(C)C)[C@]2(C)[C@H](C)CC[C@]3(CCC(=O)[C@H]32)[C@@H](C)[C@@H]1O` [Valnemulin HCl], the relative cell viability is reported as 1.3 ± 0.07. In the case of `Cc1c(-c2ccc(O)cc2)n(Cc2ccc(OCCN3CCCCCC3)cc2)c2ccc(O)cc12` [Bazedoxifene HCl], the relative cell viability is reported as 0.794 ± 0.06. For `CC(C=CC1(O)C(C)=CC(=O)CC1(C)C)=CC(=O)O` (stereo not drawn) [Abscisic Acid (Dormin)], the relative cell viability was 1.26 ± 0.18. Work on `NC[C@H](O)c1ccc(O)c(O)c1` [Noradrenaline bitartrate monohydrate] yielded a relative cell viability of 1.07 ± 0.023. For `CCN(CC)CCNC(=O)c1ccc(N)cc1` [Procainamide HCl], the relative cell viability was 0.957 ± 0.026. `N#C/C(=C1/SC[C@@H](c2ccc(Cl)cc2Cl)S1)n1ccnc1` [Luliconazole] showed a relative cell viability of 1.01 ± 0.069. In the case of `O=[N+]([O-])c1ccc(Nc2nc(N3CCOCC3)nc(N3CCOCC3)n2)cc1`, the relative cell viability is reported as 1.07 ± 0.079. Work on `O=C1O[C@H]([C@@H](O)CO)C([O-])=C1O.[Na+]` [Sodium ascorbate] yielded a relative cell viability of 1.24 ± 0.038. In the case of `CCCCOc1cc(C(=O)OCCN(CC)CC)ccc1N` [Oxybuprocaine HCl], the relative cell viability is reported as 1.08 ± 0.13. Compound `CCOC(=O)C1=C(N)Oc2ccc(Br)cc2C1C(C#N)C(=O)OCC` (stereo not drawn) has a relative cell viability of 0.67 ± 0.1. For `NC1(Cc2ccc(Cl)cc2)CCN(c2ncnc3[nH]ccc23)CC1`, the relative cell viability was 0.996 ± 0.041. Compound `Cc1cc(C(C)Nc2ccccc2)c2nc(N3CCOCC3)cc(=O)n2c1` (stereo not drawn) has a relative cell viability of 1.147 ± 0.0084. For `Clc1ccc2nsnc2c1NC1=NCCN1` [Tizanidine HCl], the relative cell viability was 1.25 ± 0.14. With `Cc1cc(Nc2cc(N3CCN(C)CC3)nc(Sc3ccc(NC(=O)C4CC4)cc3)n2)n[nH]1` [VX-680 (Tozasertib, MK-0457)] the relative cell viability was 1.19 ± 0.03. With `CC(C)Oc1ccc2c(=O)c(-c3ccccc3)coc2c1` [Ipriflavone (Osteofix)] the relative cell viability was 0.968 ± 0.056. Compound `Nc1nc(OCc2cc(Br)cs2)c2[nH]cnc2n1` [Lomeguatrib] has a relative cell viability of 1.029 ± 0.0083. With `CCCCOc1ccc(C(=O)Nc2ccc(F)cc2F)cc1` the relative cell viability was 0.957 ± 0.16.
